Several values for one entry are separate records, joined by “and”; a condition that tells them apart may be missing. Equal entries are not always repeated. Hit rate of the full screen: of about 410,000 compounds, about 6,400 (1.6%) were called active. This list was built around the results that the source calls inconclusive (neither active nor inactive); the mix of calls is not that of the screen. Calls come from the whole dose curve; as a rule, active = well fitted inhibition curve with a large enough effect; inconclusive = small, poorly fitted or top-dose-only effect; inactive = no such curve, though single readings can be large or run the other way. Where the call is inconclusive, the potency comes from a doubtful curve fit.
Each molecule was assayed against Glucagon-like peptide 1 receptor (Homo sapiens) (UniProt P43220) (assay: qHTS of GLP-1 Receptor Inverse Agonists (Inhibition Mode)). Conditions: HEK293 GLP-1R CRE-luciferase, luminescence, 24 h, GLP-1R form is constitutively active; activity change, negative = inhibition: at 38.3 µM (top of the series) unless noted.
Procedure, shortened: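 Luminescence readout: a drop in cAMP-driven luciferase signal flags inverse agonism at a constitutively active GLP-1R stably expressed in HEK293. Compound exposure lasted 24 hr at 37 deg C, 5% CO2.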
% is set by controls: 0 for no effect and ±100 for the full control effect; potency is the fitted concentration of half-maximal effect; tags give direction and shape of the fitted curve.
Note: nearly all actives have a fitted effect of over 55% in size.

Chain of UniProt P43220 (P43220 whole entry, looked up): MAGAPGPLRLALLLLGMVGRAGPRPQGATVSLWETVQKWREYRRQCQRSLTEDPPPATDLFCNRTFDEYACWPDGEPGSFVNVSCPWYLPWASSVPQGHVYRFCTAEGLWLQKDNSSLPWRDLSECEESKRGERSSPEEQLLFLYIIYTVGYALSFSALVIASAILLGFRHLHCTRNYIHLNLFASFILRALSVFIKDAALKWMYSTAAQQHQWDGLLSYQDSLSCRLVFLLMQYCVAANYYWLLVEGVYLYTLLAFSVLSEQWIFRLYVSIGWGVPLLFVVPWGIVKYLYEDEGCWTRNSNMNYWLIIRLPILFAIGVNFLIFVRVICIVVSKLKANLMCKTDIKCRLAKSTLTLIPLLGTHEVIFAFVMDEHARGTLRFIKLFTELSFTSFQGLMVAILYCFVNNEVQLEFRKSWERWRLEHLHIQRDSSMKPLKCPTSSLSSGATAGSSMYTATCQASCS

Row | Structure (SMILES) | activity change, negative = inhibition | Potency
1 | COc1ccc(C(=O)N2CCn3c2nc2ccccc23)cc1 | inactive: 25.3% | –
2 | O=C(CCS(=O)(=O)c1cc2c(cc1Cl)NC(=O)CO2)NCCc1ccc(Cl)cc1 | inactive: 4.05% | –
3 | Cc1ccc(CNS(=O)(=O)c2ccc(Cl)s2)cc1 | – | inconclusive: 28.2 µM [inhibitor, single point]
4 | Cc1ccc(OCC(=O)Nc2ccc(F)cc2)c([N+](=O)[O-])n1 | inactive: 13.8% | –
5 | CCN(C(=O)COC(=O)c1cccnc1SC)C1CCCCC1 | – | inconclusive: 11.2 µM [inhibitor, single point]
6 | CCOCCCN1CN(S(=O)(=O)c2ccc(Cl)cc2)c2nc3ccccc3nc21 | – | inconclusive: 1.26 µM [inhibitor, full curve]
7 | Cc1ccc(C)c(OCCn2cc(/C=C(/C#N)C(=O)NCC3CCCO3)c3ccccc32)c1 (configuration not stated) | – | inconclusive: 5.01 µM [inhibitor, partial curve]
8 | CCN(CC)C(=O)Cn1c(SCCOc2ccc(Cl)cc2)nc2ccccc21 | – | inconclusive: 14.1 µM [inhibitor, single point]
9 | Cc1ccnc(NC(=O)CCC(=O)c2cccs2)c1 | – | active: 5.62 µM
10 | O=C(c1ccc(Cl)c([N+](=O)[O-])c1)N1CCN(S(=O)(=O)c2ccc(Cl)cc2)CC1 | – | inconclusive: 7.94 µM [inhibitor, partial curve, poor fit]
11 | CCOc1ccc(CN(C)C(=O)[C@H](Cc2ccccc2)NC(=O)OCc2ccccc2)cc1OC | – | inconclusive: 8.91 µM [inhibitor, partial curve, poor fit]
12 | Cn1cccc1/C=C1\SC(=Nc2ccccc2)NC1=O | – | inconclusive: 1 µM [inhibitor, full curve, poor fit]
13 | CC(C)NC(=O)CCn1nc(-c2ccc(Cl)cc2)c2ccccc2c1=O | – | inconclusive: 8.91 µM [inhibitor, partial curve]
14 | Cc1ccsc1/C=C1\CCC(C2CCCC2)C1=O (configuration not stated) | – | inconclusive: 28.2 µM [inhibitor, single point]
15 | Cc1ccc(Cn2cc(CCC(=O)NCc3ccccc3F)c3ccccc32)cc1 | – | inconclusive: 14.1 µM [inhibitor, single point]
16 | CCN(CC)S(=O)(=O)c1ccc2c(c1)N(CC(=O)N(C)Cc1ccccc1)C(=O)CO2 | – | inconclusive: 7.08 µM [inhibitor, partial curve, poor fit]
17 | COc1cccc(/C=C/C(=O)c2ccc(NC3=NCCCS3)cc2)c1 | – | inconclusive: 11.2 µM [inhibitor, partial curve, poor fit]
18 | CCN(Cc1ccccc1)C(=O)/C=C/c1ccccc1[N+](=O)[O-] | – | inconclusive: 11.2 µM [inhibitor, partial curve, poor fit]
19 | CCCCOc1ccc(CN(CCO)CCO)cc1[N+](=O)[O-] | – | inconclusive: 3.98 µM [inhibitor, partial curve, poor fit]
20 | COc1cccc(CN2CCN(C(=O)c3ccco3)CC2)c1OC | – | inconclusive: 11.2 µM [inhibitor, single point]
21 | Cc1ccc(N=Cc2cc(Cc3ccccc3Cl)cc([N+](=O)[O-])c2O)c(O)c1 | – | inconclusive: 12.6 µM [inhibitor, single point]

Row | Structure (SMILES) | activity change, negative = inhibition | Potency
22 | O=C(COc1ccccc1)NC(=S)Nc1cccc2c(O)cccc12 | – | inconclusive: 10 µM [inhibitor, single point]
23 | Cc1cccn2c(=O)c3cc(C(=O)NCCc4ccccc4)c(=N)n(CCCn4ccnc4)c3nc12 | – | inconclusive: 14.1 µM [inhibitor, partial curve, poor fit]
24 | O=C(NCCS(=O)(=O)N1CCN(c2ccccc2F)CC1)c1ccc(Br)o1 | – | inconclusive: 3.16 µM [inhibitor, full curve, poor fit]
25 | CCCN(Cc1nc(-c2ccc(Cl)cc2)no1)CC1CCCO1 (configuration not stated) | – | inconclusive: 28.2 µM [inhibitor, single point]
26 | O=C1c2cccc3c(O)ccc(c23)C(=O)N1Cc1ccccc1 | – | inconclusive: 12.6 µM [inhibitor, single point]
27 | CCCCOc1ccc(C(=O)N(C)CC(=O)Nc2ccc(C)cc2)cc1 | – | inconclusive: 11.2 µM [inhibitor, partial curve, poor fit]
28 | COCn1c(C(O)c2ccccc2)cc2ccccc21 (configuration not stated) | – | inconclusive: 28.2 µM [inhibitor, single point]
29 | Cc1ccc(-c2cc(C(=O)N3CC4(C)CC3CC(C)(C)C4)no2)cc1 (configuration not stated) | – | inconclusive: 3.16 µM [inhibitor, partial curve, poor fit]
30 | CC(C)(C)c1ccc(C2NC(=O)c3n[nH]c(-c4cccs4)c32)cc1 (configuration not stated) | inactive: 18.8% | –
31 | CCCC(c1nnnn1Cc1ccco1)N1CCN(c2cc(Cl)ccc2C)CC1 (configuration not stated) | – | active: 5.01 µM
32 | CCCCSCCCNC(=O)CN1C(=O)COc2ccc(S(=O)(=O)N3CCC(C)CC3)cc21 | inactive: -1.54% | –
33 | Cc1ccccc1-c1cnn(-c2cccc([N+](=O)[O-])c2)c1N | – | inconclusive: 28.2 µM [inhibitor, single point]
34 | CCC(=O)Oc1cccc(C(=O)Nc2cccc(NC(=O)c3ccco3)c2)c1 | – | inconclusive: 28.2 µM [inhibitor, partial curve, poor fit]
35 | O=C(Nc1nnc(S(=O)(=O)N2CCN(c3ccc(F)cc3)CC2)s1)c1ccc(Cl)cc1 | inactive: 3.6% | –
36 | Cc1cccc(N(C(=O)CNC(=O)c2ccco2)C(C(=O)NC2CCCC2)c2ccncc2)c1C (configuration not stated) | inactive: -6.35% | –
37 | CC1CCN(CC(=O)Nc2nc(-c3ccccc3)cs2)CC1 | – | active: 5.62 µM
38 | Cc1ccc(C(=O)c2cc([N+](=O)[O-])ccc2N2CCCCC2)c(C)c1 | – | inconclusive: 0.355 µM [inhibitor, full curve, poor fit]
39 | CC1CCN(C(=O)CSc2ccc(-c3ccc(F)cc3)nn2)CC1 | – | inconclusive: 22.4 µM [inhibitor, single point]
40 | COc1ccc(N(CC(=O)NCCc2cccc(C)c2)S(=O)(=O)c2c(C)noc2C)cc1 | – | inconclusive: 10 µM [inhibitor, partial curve, poor fit] and inconclusive: 11.2 µM [inhibitor, partial curve, poor fit]
41 | CCCCCCSc1ccc([C@H]2N[C@@](CC(C)C)(C(=O)OC)[C@H]3C(=O)N(C)C(=O)[C@@H]23)cc1 | – | inconclusive: 12.6 µM [inhibitor, partial curve, poor fit]
42 | CCC1(c2cccc(Cl)c2)NC(=O)N(Cc2cc(C(=O)OC)c(C)o2)C1=O (configuration not stated) | – | inconclusive: 15.8 µM [inhibitor, single point]

Row | Structure (SMILES) | activity change, negative = inhibition | Potency
43 | Cc1ccnc(NC(=O)CCC2COc3ccccc3O2)c1 (configuration not stated) | inactive: -21.3% | –
44 | O=C(CCC1CCCN(C(=O)Cc2ccc(F)cc2)C1)N1CCN(c2ccccn2)CC1 (configuration not stated) | – | inconclusive: 31.6 µM [inhibitor, single point]
45 | CCC(C)(C)NC(=O)c1ccc(S(=O)(=O)N(C)c2ccccc2OC)cc1 | – | inconclusive: 10 µM [inhibitor, single point]
46 | COc1ccc(NC(=O)C2=CC(c3ccc(OC)c(OC)c3)=NS(=O)(=O)N2C)cc1 | – | inconclusive: 28.2 µM [inhibitor, single point]
47 | COc1ccc(-n2c(CN3CCN(c4ccc(F)cc4)CC3)nc3ccc([N+](=O)[O-])cc3c2=O)c(OC)c1 | – | inconclusive: 8.91 µM [inhibitor, partial curve, poor fit]
48 | COc1ccc(CN(C)CC(=O)Nc2cccc(S(=O)(=O)N(C)c3ccccc3)c2)c(OC)c1 | – | inconclusive: 12.6 µM [inhibitor, single point]
49 | CCc1nc(Nc2ccncc2)c2oc3ccccc3c2n1 | – | inconclusive: 28.2 µM [inhibitor, single point]
50 | Cc1ccc(S(=O)(=O)N(CC(=O)NC2CC2)c2ccc(C)c(Cl)c2)cc1 | – | inconclusive: 12.6 µM [inhibitor, partial curve, poor fit]
51 | O=C(c1ccccc1)N1CCCCC1 | inactive: -3.13% | –
52 | O=C1N(c2ccc(Cl)c(Cl)c2)CN(Cc2ccccc2)CN1n1cnnc1 | inactive: -2.79% | –
53 | Cn1c(=O)n(Cc2ccccc2)c(=O)c2c1nc1n2CCCN1Cc1ccccc1 | inactive: 18.7% | –
54 | O=C(CCC1CCN(C(=O)CC2=CCCCC2)CC1)NCc1ccc(F)cc1 | – | inconclusive: 25.1 µM [inhibitor, single point]
55 | O=C(Nc1ccc(F)cc1)c1nn(-c2ccccc2)c(=O)cc1Cl | – | inconclusive: 28.2 µM [inhibitor, single point]
56 | CCCS(=O)(=O)N1CCC(CCOc2ccccc2)(C(=O)OCC)CC1 | inactive: -4.3% | –
57 | Cc1ccc(N(CC(=O)Nc2ccc(Br)c(C)c2)S(=O)(=O)c2c(C)[nH]c(=O)[nH]c2=O)cc1 | – | inconclusive: 6.31 µM [inhibitor, partial curve, poor fit]
58 | COC(=O)/C=C/c1cccc([C@H]2[C@@H]3C=CC[C@@H](C)[C@@H]3C(=O)N2Cc2ccccc2)c1 | – | inconclusive: 28.2 µM [inhibitor, single point]
59 | Cc1ccc(S(=O)(=O)NCCC(c2ccccc2)c2ccccc2)cc1C(=O)O | – | inconclusive: 0.447 µM [inhibitor, full curve, poor fit]
60 | COc1ccc(/C=C2/CCCc3ccccc3C2=O)cc1 | – | inconclusive: 1.26 µM [inhibitor, full curve, poor fit]
61 | O=C(CCOc1ccccc1)Nc1ccnn1C1CCN(Cc2ccc(F)cc2)CC1 | – | inconclusive: 10 µM [inhibitor, single point]
62 | Cc1ccc(-c2noc(CCC(=O)NCCN3CCN(Cc4ccccc4)CC3)n2)cc1 | – | inconclusive: 28.2 µM [inhibitor, single point]

Source: PubChem BioAssay AID624417 (National Center for Advancing Translational Sciences (NCATS), 2012)
